Reference: PubChem BioAssay AID588579 (National Center for Advancing Translational Sciences (NCATS), 2011)
Screen size: about 400,000 compounds; about 2,200 (0.55%) were called active. Inconclusive results, whose numbers are uncertain, are shown with a selection of clear calls. The call rests on the fitted dose curve; in most records, active means well fitted inhibition curve with a large enough effect; inconclusive means small, poorly fitted or top-dose-only effect, or another doubt; inactive means no such curve, though single readings can be large or run the other way. Potencies of inconclusive entries are doubtful fits and often do not repeat.

Each molecule was assayed against DNA polymerase kappa (Homo sapiens) (UniProt Q9UBT6) (assay: qHTS for Inhibitors of Polymerase Kappa). Settings: purified Pol kappa, fluorescent DNA synthesis assay, 10 min; series mostly up to 107 µM.
Method in brief: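 Kinetic fluorescence readout at 0 and 10 min followed reaction start with substrate at 50 nM final. Beforehand, enzyme (10 nM Pol kappa) stood 15 min with compound at room temperature; buffer-only wells were negative controls.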
Potency means the concentration at half of the fitted maximal effect; tags describe the fitted curve by direction and shape.

Chain of UniProt Q9UBT6 (Q9UBT6 whole entry, looked up): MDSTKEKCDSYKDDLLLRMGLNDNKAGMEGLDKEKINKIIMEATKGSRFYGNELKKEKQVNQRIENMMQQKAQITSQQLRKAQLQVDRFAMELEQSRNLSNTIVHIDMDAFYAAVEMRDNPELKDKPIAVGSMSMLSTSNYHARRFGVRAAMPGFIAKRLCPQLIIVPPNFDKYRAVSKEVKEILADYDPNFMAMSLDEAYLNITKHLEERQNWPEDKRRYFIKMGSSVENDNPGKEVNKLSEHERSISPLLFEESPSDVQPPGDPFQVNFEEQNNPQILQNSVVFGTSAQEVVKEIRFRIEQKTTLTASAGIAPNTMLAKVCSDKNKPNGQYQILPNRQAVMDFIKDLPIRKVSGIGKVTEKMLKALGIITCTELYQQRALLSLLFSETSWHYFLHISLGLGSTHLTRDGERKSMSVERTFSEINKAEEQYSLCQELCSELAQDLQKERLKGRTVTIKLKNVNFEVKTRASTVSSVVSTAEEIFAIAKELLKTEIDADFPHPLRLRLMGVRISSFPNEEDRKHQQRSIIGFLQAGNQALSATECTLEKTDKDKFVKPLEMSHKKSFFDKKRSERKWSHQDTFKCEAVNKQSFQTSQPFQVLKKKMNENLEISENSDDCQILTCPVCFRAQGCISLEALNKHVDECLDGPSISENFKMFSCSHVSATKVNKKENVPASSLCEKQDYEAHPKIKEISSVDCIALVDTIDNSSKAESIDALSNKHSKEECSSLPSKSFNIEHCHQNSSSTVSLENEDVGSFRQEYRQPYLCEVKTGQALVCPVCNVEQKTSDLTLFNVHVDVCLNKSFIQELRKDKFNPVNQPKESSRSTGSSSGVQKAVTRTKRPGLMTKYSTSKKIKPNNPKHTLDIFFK

SMILES | Potency
CCOc1ccccc1NC(=O)COC(=O)c1c[nH]c2ccccc12 | inactive
N#CCSc1nnc(SCC#N)s1 | inconclusive: 79.4 µM [inhibitor, partial curve, poor fit]
CCCCC(=O)Nc1ccc(C(=O)NNC(=O)c2ccc(C)c(Br)c2)cc1 | inconclusive: 100 µM [inhibitor, single point]
COc1ccc(C(=O)COC(=O)/C=C/c2ccccc2)c(OC)c1 | active: 44.7 µM
O=C(CSc1ccc(Cl)cc1)c1ccco1 | active: 28.2 µM
COc1ccc(/C=C2\SC(=S)N(C(C(=O)O)c3ccccc3)C2=O)c(OC)c1 (stereo unspecified) | inactive
Cc1ccc(CSc2nc(=O)c3c(C)cc(C)nc3n2C2CC2)cc1 | inactive
Cc1ccc(S(=O)(=O)NNC(=O)c2ccncc2)cc1 | inconclusive: 89.1 µM [inhibitor, partial curve, poor fit]
Nc1cc(=O)[nH]c(SCC(=O)N2CCc3ccccc3C2)n1 | inactive
Cc1ccn2c(=O)nc(SCC(=O)OCc3ccccc3)nc2c1 | inconclusive: 89.1 µM [inhibitor, single point]
O=C(Nc1cccc(C(=O)O)c1)/C(=C\c1ccco1)NC(=O)c1ccc(Br)o1 | active: 79.4 µM
COC(=O)CCCC1=CC2=CC(=O)C(C)(OC(=O)c3cccs3)C(=O)C2=CN1Cc1ccco1 (stereo unspecified) | inconclusive: 56.2 µM [inhibitor, partial curve, poor fit]
Cc1ccc(C(=O)O)cc1-c1ccc(/C=C2\SC(=O)N(CC(=O)Nc3ccccc3)C2=O)o1 | inconclusive: 89.1 µM [inhibitor, single point]
O=C1NN(c2ccc(Cl)c(Cl)c2)C(=O)/C1=C/c1ccc(-c2ccccc2C(=O)O)o1 | active: 39.8 µM
CC1CN(C(=O)CCC(=O)NCc2cccs2)c2ccccc2O1 (stereo unspecified) | inconclusive: 89.1 µM [inhibitor, partial curve, poor fit]
Cc1cc(C)n2nc3nc(N4CCCCC4)nc(-c4ccco4)c3c2n1 | active: 31.6 µM
C#Cc1ccc([C@@H]2C=C(C(=O)NCc3ccccc3)O[C@H](OCCCCO)C2)cc1 | inconclusive: 89.1 µM [inhibitor, single point]
Cc1nn(CCCC(=O)NCc2ccccc2)c(=O)c2c1sc1ccccc12 | inconclusive: 89.1 µM [inhibitor, partial curve, poor fit]
O=C(CC1N=C2c3ccccc3N=C(SCC(=O)Nc3ccccc3F)N2C1=O)NCc1ccc2c(c1)OCO2 (stereo unspecified) | inactive
Cc1ccc(/C=C2\C(=N)N3N=C(CC(=O)N4CCOCC4)SC3=NC2=O)o1 | inconclusive: 50.1 µM [inhibitor, partial curve, poor fit]
CCn1c(SCC(=O)Nc2sccc2C(N)=O)nnc1C1CC1 | inconclusive: 79.4 µM [inhibitor, partial curve, poor fit]
CC(=O)N1CCc2cc(S(=O)(=O)NC(Cc3ccccc3)C(=O)O)ccc21 (stereo unspecified) | inactive
O=C(NCCc1ccc2c(c1)OCCO2)c1cc(S(=O)(=O)N2CCCC2)ccc1Br | inconclusive: 89.1 µM [inhibitor, partial curve, poor fit]

SMILES | Potency
O=C(CCOc1ccccc1)Nc1ccc(S(=O)(=O)N2CCCC2)cc1 | inactive
COc1ccccc1NC(=O)C1=C(C)Nc2nc(SCC(=O)c3ccc(C)cc3)nn2C1c1ccc(F)cc1 (stereo unspecified) | inactive
CC(=O)Nc1ccc(S(=O)(=O)Nc2nc3ccccc3nc2Nc2ccc(O)c(C(=O)O)c2)cc1 | active: 79.4 µM
Cc1ccc(C)c(NC(=O)Cn2c(=O)n(CC(=O)NCCc3ccccc3)c(=O)c3ccccc32)c1 | inconclusive: 3.16 µM [inhibitor, full curve, poor fit]
CC(=O)Nc1cccc(NC(=O)Nc2cccc3ccccc23)c1 | inactive
Cc1c(C(=O)O)sc2nc(SCC(=O)Nc3ccc(S(=O)(=O)NCCCC(=O)O)cc3)[nH]c(=O)c12 | inconclusive: 89.1 µM [inhibitor, partial curve, poor fit]
Cc1cc(S(=O)(=O)N2CCCC2)ccc1OCC(=O)NCc1ccco1 | inactive
O=C(Nc1ccc2c3c(cccc13)CC2)c1ccco1 | inconclusive: 89.1 µM [inhibitor, single point]
O=c1c(-c2ccccc2)nc2cnc(Oc3cccc(Cl)c3)nc2n1C[C@H]1CCCO1 | inactive
Cc1cccc(C)c1NC(=O)Cn1cc(S(=O)(=O)Cc2ccc(F)cc2)c2ccccc21 | inconclusive: 89.1 µM [inhibitor, single point]
O=C(O)c1cc(=O)c2ccccc2[nH]1 | inconclusive: 0.0089 µM [inhibitor, full curve, poor fit]
COC(=O)/C=C1\SC(=Nc2ccc(Cl)c(Cl)c2)NC1=O | inactive
O=C(CSc1ccc2nnc(CCNS(=O)(=O)c3ccccc3)n2n1)Nc1ccccc1C(F)(F)F | inactive
CSc1cccc(N2CC(C(=O)N(CC(C)C)c3c(N)n(Cc4ccccc4)c(=O)[nH]c3=O)CC2=O)c1 (stereo unspecified) | inconclusive: 100 µM [inhibitor, single point]
O=C(NCc1ccccn1)c1nn(-c2ccccc2F)nc1CO | inactive
O=C(N/N=C/C=C/c1ccco1)c1cnccn1 | inactive
CC(Sc1ccc(S(=O)(=O)N2CCN(C)CC2)cn1)C(=O)NC1(C#N)CCCCC1 (stereo unspecified) | inactive
CCc1cc2c(=O)n(Cc3ccco3)c(SCC(=O)N3CCCc4ccccc43)nc2s1 | inconclusive: 89.1 µM [inhibitor, partial curve, poor fit]
O=C(CCN1C(=O)c2ccccc2S1(=O)=O)Nc1ccc(F)c(F)c1F | inactive
O=C(O)C1CN(CCCP(=O)(O)O)CCN1 (stereo unspecified) | inactive
CCc1ccc(NC(=O)CC2C(=O)N(c3ccc(Cl)cc3)C(=O)N2C2CCCC2)cc1 (stereo unspecified) | inconclusive: 89.1 µM [inhibitor, single point]
Nc1c(C(=O)CSc2n[nH]c(-c3ccccc3)n2)c(=O)[nH]c(=O)n1C1CC1 | inconclusive: 100 µM [inhibitor, single point]
COc1ccc(CNC(=O)C2CCN(S(=O)(=O)c3ccc4c(ccn4C)c3)CC2)cc1 | inactive
